Assay results published in the supplement of paper PMC10681739.
± gives the standard deviation of the averaged measurements. The full ranking holds about 4,000 sequences; the median of “arbitrary fluorescence units” is about 830, and the highest 2% start at about 6,500. This part holds few or none of the hits.

Molecular target: RUNX1 (UniProt Q01196)
Experiment: RUNX1 binding intensity (PBM fluorescence), RUNX1 alone (arbitrary fluorescence units); higher = stronger binding
Details: RUNX1 concentration 2 nM; ETS1 concentration 0 nM
Description: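 gcPBM on 36-bp genomic-derived probes (partner site mutated) containing one RUNX1 site and no ETS1 site. Recombinant human RUNX1 (2 nM) was incubated alone or with ETS1 (25 nM) and detected by anti-RUNX1 antibody fluorescence. Values are medians over 4 replicate spots (not normalised). The probes sit in constant array flanks that are not printed.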
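Also: Full-length recombinant human RUNX1 bound to double-stranded DNA microarray spots, detected with an Alexa488-labelled secondary antibody after the anti-RUNX1 primary, read as scanned spot fluorescence.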

Sequence of UniProt Q01196 (Q01196 whole entry): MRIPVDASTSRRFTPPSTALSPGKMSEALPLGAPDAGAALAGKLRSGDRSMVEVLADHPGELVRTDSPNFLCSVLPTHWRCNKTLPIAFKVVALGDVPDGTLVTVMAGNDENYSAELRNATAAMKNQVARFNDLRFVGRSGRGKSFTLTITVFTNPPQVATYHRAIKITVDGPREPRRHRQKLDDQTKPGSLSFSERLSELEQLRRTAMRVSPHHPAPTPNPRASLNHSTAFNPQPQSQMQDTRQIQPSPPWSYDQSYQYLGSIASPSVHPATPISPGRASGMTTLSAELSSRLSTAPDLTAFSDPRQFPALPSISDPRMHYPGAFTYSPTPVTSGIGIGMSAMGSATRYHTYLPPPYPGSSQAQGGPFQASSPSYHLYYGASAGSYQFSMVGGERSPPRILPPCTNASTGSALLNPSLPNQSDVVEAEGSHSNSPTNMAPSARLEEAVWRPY

Row | Sequence | RUNX1 binding intensity
1 | TGTTCGGTGGTTGTCTCGGGGGGTTGCAGCAAGATC | 1010
2 | ATTGTAAATTGCCTTTAAACGTCCCCACCGCGCTCC | 967
3 | AACTAGTTCGTTCCTTATGCGGCCCAGGGCTCCACC | 893
4 | CTTGGCTGTGGTTCTCTGGTAGGAGGTGAGAGAGGT | 968
5 | GGAGGCAGGGCCGCAACCCCGGCAAGCTGGGGTCGG | 723
6 | GAGTGGCTGTGGTCTCGGGCGGCTGGGGAGAGGGGA | 956
7 | AACAACAAAAATCCCAGGAACCACAGTGGGACAGGA | 772
8 | GCTCCTCCCGGCTATAAAGCCCCAAACCACGCCACT | 980
9 | AAGCCCTAGAGGAGATTAGTACGTAACCACCTTCTG | 709
10 | AAGTTAGGTCTGAAGACCTGTGGGCAGCTTGAGCGC | 695
11 | AATCAGATTGTGCCCACAAGGCGGAGATGTACGACA | 846
12 | AAAAACAAGGAGGCCTGAAGGGAAGGCGGTTGAAAA | 764
13 | AACCAAGCAACCACTCGAAACTCCCGAGTACACCCT | 954
14 | AAATTGAGGTTTCTGTTAGTGAAGAGGAGGAGGTCA | 981
15 | GGACTGCGTTGCCGGACACTGCGGGTGCCGGTAGCC | 683
16 | AGTCTTACCACCTCTGAGGATGACTGAGCGCAAGAG | 775
17 | GCTGCGGCTGCCGCCATCATGGTGCGGCAGCTTAAG | 749
18 | GACAGAACCTGTGGTCTGCAGGGTTTCATGTTAAAC | 882
19 | TACGGGAACGTCCTTTTCTTGTGGTGTGGCCGGGTC | 788
20 | TCCCTCCACCGCTCAGACCCACTGCCTGTCTGCTTC | 1420
21 | CTTGCGGCCTCGCGGCATGGGCAGTCTCCGCCGCCA | 755
22 | CTGTGTATTTGTGGGATGCTTGAGGAGATCAAAAAG | 766
23 | TTGTCACGCCCGGCACGCCGCGAACCGCAAGGAACC | 1270
24 | AGGCCGCTTGCTCCCACATGAAACCGCAGGCTTCGG | 3320
25 | TTACCCCGGCTGAACGGAGGCCTGCGGTCGCGGCGG | 1070

Row | Sequence | RUNX1 binding intensity
26 | CTTGTGCCTACATGCTGTAGCTGTGGTTTAGGGACG | 811
27 | ACCTCCGTCCGTCCCGCGGGACCAGGGTGCGGGTCC | 822
28 | ACTGTGGGCGCAGGCGCGGCTGCCGATTCCTCTTTA | 786
29 | CATTGAATGTGGTAGGAGGTGGGGAGCAAGCCACTG | 824
30 | GACTTGGGGGAACTGGCTTGGTTTGCGTGGTTTCTC | 1080
31 | AAAACCTTTAAACCACAGGGGACAGGCAATGAGTGC | 1180
32 | TGAAGGAGCGCAAGGGTTGCTTGCAGACCGCACGGT | 649
33 | AGTTGGTTCCTTCAGGTGGGTTTGTGGGTTTGGGGT | 790
34 | GAGACGTGTGGTAATTACTGTTTTCCAGGCAGTGGC | 752
35 | GGTCACAGCCTTTCCCTTCTGTGTCTCAGCCGCAGT | 948
36 | GGACAGCAAGTGCCTGCAGCTTCTACCACAAACCTA | 820
37 | AAGAGGCAGTCCCAAATTGCTTTTTAACCACCAACA | 766
38 | TGAGTCAGTAGCCACAAGTAGAACAGGCAGTGGAAA | 771
39 | CCCGGACCGTCTCCGTGCTGTGGTCCCGGGTTCTGG | 884
40 | TCGCCTCAGCCCACATATTCAACCCGGGAGCCTGGG | 983
41 | CTGTTCTCATCAGCCCGCTCTGAGTCACCCACACCT | 916
42 | GCCCACTGCCTGCCGTAAGAGAAAACCACTAACACA | 1190
43 | CTCCTGCCTGATCGGGCAGGAACTAACCACAGGAGG | 831
44 | GACCCGCCCACAAGACCTGCCCCTTTCGGGTCCGTT | 1050
45 | GAAGCCAGCAAATGGTGCGTGTGCGGGGCCGGGCGC | 705
46 | GGAGAGTTGACTTTCGGCGGCTTGTGGGAGTGCTGG | 644
47 | CTCCGGGAGCCCGCAAGCGGCTCCCGGGTGCTCGCA | 707
48 | CACCTCCGTCCCCTACAACGCGGCCGACCGCGCGGA | 1040
49 | TCTGGCTTCATGTCTTAATAGGGCTTTGTGGTGTGC | 748
50 | TGGCGGGAGAACGTCCCCCTGTGCGGTCGCGACGTG | 713

Row | Sequence | RUNX1 binding intensity
51 | ATGGGATTCCCGCAGGTTGCACCGAAGGACGCAAGG | 785
52 | CCAGCGCCGCGGTACAACCTCGGCACTTTCGCCCGC | 770
53 | CCCCCGTGTGGTCCGCCCATGCTAACTTGCTGCCGG | 906
54 | CATTTTGTCGCCGCAGCCACCTTGCTGGAGAGCCCG | 1050
55 | TGCCTCTTCATGTGGCTGGGCTGTATCTGACCACAC | 680
56 | GCCTTTGCGGCAGTGTGCGCCCCGTAAGCCTGAAGC | 716
57 | TCCAGCCGGGCGCGATGCCTGGAGGCTGCGGGCGCC | 697
58 | GAGCGCAAACCCGAGAGTCAGTTCAACCACAGCCAC | 852
59 | TCGGTCTGCGGCTGCGCACAGCGCGAGGAGGCGCGG | 751
60 | GGGTTCCCGCAGCAACACGTACCGGCAAGCGTTTGG | 812
61 | AGATGAGGGAGTTGGGGTTTAGAGTGGTTAAACTGT | 719
62 | CTCCGGGAACAGCCGAAAAGGGACCGCATGAACCTC | 870
63 | TCTCTCTACGGAGGCTGGTAGGGCTGTGGGTGCTTC | 745
64 | CCGCGGCTGAACCCGAGGGCGGCGGCAGCGGTTTCA | 640
65 | CAAAACATGAACCACAAACCCCAGCTTCTTCTTGCA | 1650
66 | GACGCTCTCTTTCTGTCTTTGTGGCTCCAGAAAGGC | 773
67 | CATGCGGTCCCTTTTGCGCTGTTCCCTGACGGACTA | 966
68 | AAATGAGCGGTGGTTGAGCCCTACTTTCGGTGGTGC | 743
69 | TCCCCTTTCAGGGAAGGGTTGGGGATCTGACCACGT | 640
70 | ACACCGTAAGCCCAACAGCATGCCGAGTAACCACCC | 940
71 | CACTTGGTCTTGCTGCCCTTGTGGCCCTAACACCCT | 841
72 | AATCCCGGCAACGCGGATTCAGCGGAGCGCGGTGAC | 711
73 | AGGGACGAAGGGTACTGTTGGGAGCCCGCAATGGAA | 668
74 | CGGGCTGGAATCACGATCCACCACACCGCGCTGGCT | 809
75 | ATCTTAGCCCACAGCCAAAGCTCTTGCTGGTTGCTC | 688

Row | Sequence | RUNX1 binding intensity
76 | CCCGCGGTCCAAAATCTGAGTAAAGCGAAAGTACGG | 766
77 | CTAGGCAGACCACAAACGTTAGGGCAGGCAATGATT | 1060
78 | ATGGCGGAGCGAAAGTCCCAGCCACAACGCGAAAAG | 713
79 | TTGGCTTGTGGCTGGACTACATGTCCCAGCATCCCT | 738
80 | TCTGGGCTGACTTGCTGGCTTCGTCCCACAACTTCA | 772
81 | GTGTCTGTGGTGTCGGCGCTGCATGATGACGCGAGC | 785
82 | AGAAGTGCGGTGGAGGAGGGCTGGAACGGTGACTAT | 757
83 | GGCGGCTCCCGGGATCTGCCTGGCGGTTGCTTTGTC | 665
84 | CTTCGACCCCGTAAGCGCTAACCACCCCGGGGGCCG | 842
85 | TGCTTCTGAGGCAGTGATCTGTGGTCAAAGAAAGAA | 780
86 | GCTAATGGAACCAGCACGCGGCCACCGCAGGAACCT | 965
87 | GAATGACAGAAAGATGATTAGTGATAGTGGGTTTGG | 764
88 | CCAGTACCCCACTTGCTGACCAAACCACAAAGGTCA | 1910
89 | TCGGCGGCTATGAAAAAAAGTCCGTGGTCACGTGCA | 775
90 | GTCTTGTTTTGTGGTGTAAGCACGTCCCGCTAAGCA | 1290
91 | TGCGAACCTTGTGGCTTTGTCTGTTTCATGTTTCAG | 945
92 | ACCACCCACCTCCCGCGCAGTTCCAAACCGCGACCA | 1350
93 | CCCTGCCGTCGCGGTGCACTCTGGGACATGTGATTT | 790
94 | GCTGGCAATTCGTTCCCTCTGTGGGAGGTGCTCCGC | 770
95 | GAGCAACCAGCAAGAGCTTTGGCTGTGGGCTAAGAT | 719
96 | TGGCCCCGGGGCCCCACAACGGCTTCATGTGTCCCG | 693
97 | CTGTGCTTGTGGGCGAAGCCAGCAAATAAGGATAAA | 766
98 | TTTGCTGTGGTTATGACTTTCAACATACTTGCTGCT | 1430
99 | GCTGCGGGCTGTCTTCACCTCAGACGTGAAGCTGCT | 767
100 | CATACAGCATGCTGGGGTATGTAAAACAAACCACGG | 799

Row | Sequence | RUNX1 binding intensity
101 | GGTCTTATCTTGTGGTTCCCAAGGAATCAGGTCCCG | 1280 ± 110
102 | CAGGCTGCTTCAGGCGCGCGGCAGAGCGGTCAGAGC | 716
103 | CCGAGACACCGCGGGCGAGCGCATGATGGGGTTGTC | 795
104 | ACAAGAGGAATTGAGTCTACCCATGATGCGGTCACA | 944
105 | AAGTCTGCATGTGGGAGAGGAACATGCTGTTTGCCT | 787
106 | GCTTGTGGTTGGAAACCTGCAGTCACAGAGGAGGTG | 1860
107 | GCCACCTTACCACAGCTGTACAGAGCTCCCTTTAGC | 1970
108 | GTCCCTCCACAACCGCCCCCAGCTTGCTGCTCCCCA | 1370
109 | AACAGCTTACGGCACGGGGGCTGTGGTTGTGTTGGA | 801
110 | GGCTACGGCAACTCGCGAGAGCGCGGTTCAGAGGCA | 696
111 | CCCTGAGCACGTCCCCGTAAGGCTGCGGTGCACGGG | 820
112 | TAGAAGGCAGCGGTCTGAGTTCTGGAGTAGAAGGCA | 707
113 | CTCTGTGCCCTGCCGCAACAGACAGGGTGTGACTTC | 917
114 | ATCTGCAACCACGGAGGCTGCCGCGGGCTTCATGTC | 802
115 | GAGAAACATGAAGAGGGGTGGTGGTTACGGAACACG | 714
116 | GCGCGGGAGCAAGCCCCCCAATAATTGCGGGGCTTC | 772
117 | GCACACAGTGCGGTTGGCTTCCAGCTTCATGTTGGC | 1470
118 | GTGACGTGGCTGTGGGTCTCATTTGCTGCACGGCCT | 798
119 | AGACTTCACCGCAGCTTGCTGCCTCAGAGGAGGTCA | 1330
120 | GTGCTAAGTGAGGAGGTGCAGTTTACCGCACGGTGG | 790
121 | AGCGGCCAGGCCGCAGAGCCGGCCCCTTCAGCTTTA | 776
122 | TCTAGTAAAAGAGGGAGTTCTTAACCACATTTCCAT | 1030
123 | CTGCGGCTGGGACCCAGTTCCTGTACATGAAGACAT | 761
124 | GACCCCTACGCGGCACTCTCTCGCGGTAATTCGAAG | 947
125 | TGAAACCACAATTAAAAGCTCAGACCTCCTCCCCTC | 2360
